Laboratory results as given in PubChem BioAssay AID651820 (National Center for Advancing Translational Sciences (NCATS), 2012).
“And” between values parts separate entries of the source, which are not always exact repeats. Equal entries are not always repeated. About 12,000 (3.5%) of roughly 340,000 compounds were called active. The shares of active, inactive and inconclusive entries below differ from those in the screen. The call rests on the fitted dose curve; in most records, active means well fitted inhibition curve with a large enough effect; inconclusive means small, poorly fitted or top-dose-only effect, or another doubt; inactive means no such curve, though single readings can be large or run the other way. Potencies of inconclusive entries are doubtful fits and often do not repeat.

test: qHTS Assay for Inhibitors of Hepatitis C Virus (HCV); details: Huh7.5.1 HCVcc-Cre (HCVcc is cell-culture hepatitis C virus) infection, luciferase reporter, 44 h; activity change, negative = inhibition: at 41.8 µM (top of the series)
How it was run: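 HCVcc-Cre virus at an moi near 0.5 was added right after compound to cells cultured 4 h from seeding (1,000 cells/well). Luciferase activity was determined 44 h later, 15 min after substrate addition at RT.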
On the % scale 0 is the no-effect control and ±100 the full control effect; potency means the concentration at half of the fitted maximal effect; tags describe the fitted curve by direction and shape.

SMILES	Potency	activity change, negative = inhibition
O=C(NC(Cc1ccccc1)C(=O)O)/C(=C/c1ccc([N+](=O)[O-])cc1)NC(=O)c1ccco1 (centres undefined)	inactive	
COc1cc2c(-c3ccc(O)cc3)nc3c(c(C)nn3-c3ccccc3)c2cc1OC	active: 11.2 µM	
CS/C(=N\S(=O)(=O)c1cccs1)Nc1cccc(Cl)c1C	inconclusive: 31.6 µM [inhibitor, single point]	
CCOc1cc(-c2noc(-c3cccnc3)n2)ccc1OC	inconclusive: 6.31 µM [inhibitor, partial curve]	
COc1ccc2cc3c(N)c(C(=O)NCc4ccco4)sc3nc2c1	inconclusive: 22.4 µM [inhibitor, single point]	
Cc1cc(C)cc(OCC(=O)Nc2ccc(-n3cnnn3)cc2)c1	inconclusive: 7.94 µM [inhibitor, partial curve]	
COc1cc2c(cc1OC)C(COc1ccccc1OC)N(C(=O)C(C)(C)C)CC2 (centres undefined)	inconclusive: 31.6 µM [inhibitor, single point]	
CC(C)(C)OC(=O)CC1(C#N)c2ccccc2C(Br)=CN1C(=O)c1ccccc1 (centres undefined)	inconclusive: 25.1 µM [inhibitor, single point]	
COc1cccc(/C=C2\SC(=S)N(CCCC(=O)N3CCCCC3CCO)C2=O)c1 (centres undefined)	inconclusive: 31.6 µM [inhibitor, single point]	
COc1cccc(C2=NOC(C(=O)Nc3cc(C)nn3-c3ccccc3)C2)c1OC (centres undefined)	inconclusive: 31.6 µM [inhibitor, single point]	
O=C(NCc1cccnc1)/C(=C\c1ccc(-c2ccc(Cl)c(Cl)c2)o1)S(=O)(=O)c1ccccc1	active: 11.2 µM	
CCOc1ccc(N(CC(=O)N2CCCC2)S(=O)(=O)c2ccc(F)cc2)cc1	inactive	
Cc1ccc(C)c(N(C(=O)c2snc(C(N)=O)c2N)C(C(=O)NCC2CCCO2)c2ccc(C)o2)c1 (centres undefined)	inconclusive: 10 µM [inhibitor, single point]	
CCN(C(=O)c1ccc2c(=O)n3c(nc2c1)CCCCC3)c1cc(OC)ccc1OC	inactive	
COc1ccc(NC(=O)c2ccc3c(=O)n(-c4ccc(OC)cc4OC)c(=S)[nH]c3c2)cc1	inconclusive: 11.2 µM [inhibitor, single point]	
COC(=O)CSc1n[nH]c(-c2ccncc2)n1	inactive	
CCC(C(=O)c1ccc(O)cc1)c1ccccc1 (centres undefined)	inactive	
CCCOc1ccc2oc(=O)c3c(c2c1)CCCN3C(=O)CN(C)Cc1ccccc1	inconclusive: 31.6 µM [inhibitor, single point]	
CC(OC(=O)Cc1c[nH]c2ccccc12)C(=O)N(C)c1ccccc1 (centres undefined)		inactive: -3.33% [at 8.37 µM]
COc1ccc(-c2noc(CCCC(=O)NC3CCCC3)n2)cc1	active: 12.6 µM	
CC12CCC(C(=O)N(CCCCN3CCN(c4ccccn4)CC3)C1=O)C2(C)C (centres undefined)	inactive	
CCCCOC(=O)c1[nH]c2c(c1C)C(=O)CC(c1cc(OC)c(OC)c(OC)c1)C2 (centres undefined)	active: 2.51 µM	

SMILES	Potency	activity change, negative = inhibition
COC(=O)C1(Cc2ccc(O)cc2)OC(=O)C(O)=C1c1ccc(O)cc1 (centres undefined)	inconclusive: 5.62 µM [inhibitor, single point]	
N#Cc1c(-c2ccc3c(c2)OCO3)ccn2nc(-c3cccc(C(F)(F)F)c3)nc12	inconclusive: 15.8 µM [inhibitor, partial curve, poor fit]	
COc1ccc(Nc2nc(NCCN3CCOCC3)nc(Nc3ccc(OC)cc3)n2)cc1	inconclusive: 3.16 µM [inhibitor, single point]	
O=C1C(=O)c2ccccc2C(O)=C1CC=C(Cl)Cl	inactive	
O=C(CCn1nc(-c2ccccc2)ccc1=O)N1CCN(c2ccccc2)CC1	inactive	
O=C1CCCC/C=C\C[C@H](CC(=O)N(CCO)Cc2ccccc2)C(=O)N[C@@H](c2ccccc2)CO1	inactive	
CCCn1ccc2c(OCC(=O)Nc3ccc(NC(C)=O)cc3)cccc2c1=O	inconclusive: 3.55 µM [inhibitor, full curve]	
COc1cccc(N(CC(=O)NC2CCCCC2)C(=O)CCC(=O)Nc2nccs2)c1	inactive	
S=P(N1CC1)(N1CC1)N1CC1	inconclusive: 35.5 µM [inhibitor, partial curve, poor fit]	
N=c1n(CCN2CCCCC2)c2ccccc2n1CC(O)c1ccco1 (centres undefined)	inconclusive: 11.2 µM [inhibitor, partial curve]	
O=C(Nc1cccc(S(=O)(=O)NC2=NCCCCC2)c1)c1cc(-c2ccncc2)nc2ccccc12	inconclusive: 11.2 µM [inhibitor, single point]	
COc1ccc(NC(=O)c2sc3nc(-c4cccnc4)ccc3c2N)cc1	inactive	
COc1ccc(NC(=O)c2ccc3ccccc3n2)cc1S(=O)(=O)N1CCCCC1	active: 5.62 µM	
CCN(CC)C(=O)CSc1nnc(SC(C)C(=O)NC2CC2)s1 (centres undefined)	inconclusive: 5.62 µM [inhibitor, single point]	
Cc1cc(Sc2nnc(/N=C/N(C)C)s2)c2ccccc2n1	inconclusive: 22.4 µM [inhibitor, single point]	
CSc1ncccc1C(=O)N1CCCC(C(=O)c2ccc3ccccc3c2)C1 (centres undefined)	inconclusive: 14.1 µM [inhibitor, partial curve]	
CC(C)C(=O)Nc1ccc(NC(=O)c2ccco2)cn1	inactive	
CCOC(=O)c1cc2c(=O)n3ccccc3nc2n(CC(C)C)c1=NC(=O)c1ccco1	inconclusive: 1.78 µM [inhibitor, partial curve] and inconclusive: 17.8 µM [inhibitor, partial curve]	
COc1ccc(/C=C/C(=O)N2CCN(c3ccccc3)CC2)cc1S(=O)(=O)N1CCOCC1	active: 31.6 µM	
COc1ccc(-c2cc(C)no2)cc1S(=O)(=O)N1CCCN(Cc2ccc(F)cc2)C1	inconclusive: 25.1 µM [inhibitor, single point]	
COc1ccc(Nc2nc(N3CCCC3)nc3ccccc23)c(OC)c1	active: 3.16 µM	
COc1cc(N)c(Cl)cc1C(=O)NC1CCN(Cc2ccccc2)CC1	inconclusive: 10 µM [inhibitor, partial curve]	
